According to article PMC5722342:
No constants are given. Whether binding was seen depends on the method and setting. Binding seen in cells or lysates may run through a third protein. Some entries that bind do so weakly or less than the wild type.

Biological target: MITA/STING, Q86WV6
Assay: co-IP; HEK293 cells transfected with the indicated plasmids; NP-40 lysis buffer (20 mM Tris-HCl pH 7.4, 150 mM NaCl, 1 mM EDTA, 1% Nonidet P-40); immunoprecipitation and immunoblot with the indicated antibodies (Fig 4A, 4C)
Conditions: remark: other sources report otherwise

binding: binds
B1: inactive rhomboid protein 2 (iRhom2), Q6PJF5 1-856 (protein)
chain: MASADKNGGSVSSVSSSRLQSRKPPNLSITIPPPEKETQAPGEQDSMLPEGFQNRRLKKSQPRTWAAHTTACPPSFLPKRKNPAYLKSVSLQEPRSRWQESSEKRPGFRRQASLSQSIRKGAAQWFGVSGDWEGQRQQWQRRSLHHCSMRYGRLKASCQRDLELPSQEAPSFQGTESPKPCKMPKIVDPLARGRAFRHPEEMDRPHAPHPPLTPGVLSLTSFTSVRSGYSHLPRRKRMSVAHMSLQAAAALLKGRSVLDATGQRCRVVKRSFAFPSFLEEDVVDGADTFDSSFFSKEEMSSMPDDVFESPPLSASYFRGIPHSASPVSPDGVQIPLKEYGRAPVPGPRRGKRIASKVKHFAFDRKKRHYGLGVVGNWLNRSYRRSISSTVQRQLESFDSHRPYFTYWLTFVHVIITLLVICTYGIAPVGFAQHVTTQLVLRNKGVYESVKYIQQENFWVGPSSIDLIHLGAKFSPCIRKDGQIEQLVLRERDLERDSGCCVQNDHSGCIQTQRKDCSETLATFVKWQDDTGPPMDKSDLGQKRTSGAVCHQDPRTCEEPASSGAHIWPDDITKWPICTEQARSNHTGFLHMDCEIKGRPCCIGTKGSCEITTREYCEFMHGYFHEEATLCSQVHCLDKVCGLLPFLNPEVPDQFYRLWLSLFLHAGVVHCLVSVVFQMTILRDLEKLAGWHRIAIIFILSGITGNLASAIFLPYRAEVGPAGSQFGLLACLFVELFQSWPLLERPWKAFLNLSAIVLFLFICGLLPWIDNIAHIFGFLSGLLLAFAFLPYITFGTSDKYRKRALILVSLLAFAGLFAALVLWLYIYPINWPWIEHLTCFPFTSRFCEKYELDQVLH
